Data published in the RNAGym collection of RNA variant scans (doi:10.7554/elife.90254).
Read counts are not given, so values of variants with three or more changes are uncertain.

B1: OR4K15 (parent)
chain: GUUAACGGUCAUAGGCCAUGGAAACUAGGAGCACCAUUUCGCUGCCAGUGAAGAAAUGAACAAAGAAAAUCUGGGCCAGGCAGGCAUCAAAAGAAAUAGUCUUGCGCUCAACCAGAAAGUCUGUAAUCAUUUUAAGGGUA

Variants of: B1
Assay: self-cleavage, relative activity (ratio to wild type); higher = more cleavage; in vitro, sequencing; the parent is a self-cleaving ribozyme

| Variant | self-cleavage |
| --- | --- |
| GUUAACGGUCUUAGGCCAUGGGAACUAGGAGCACCAUUUCGUUGCCAGUGAAGAAAUGAACAAAGAAAGUCUGGGCCAGGCAGGCAUCAAAGGAAAUAGUCUUGCGCUCAACCAGAAAGUCUGUAAUCAUUUUAAGGGUA | 1.02 |
| GAUAACGGUUAUAGGCCAUGGAAACUAGGAGCACUAUUUCGCUGCCAGUGGAGAAAUGAACAAAGAAAAUCUGGGCCAGGCAGGCAUCAAAAGAAAUAGUCUUGCGCUCAACCAGAAAGUCUGUAAUCAUUUUAAGGAUA | 0.5 |
| GUUAACGGUCAUAGGCCAUGGAAACUAGGAGCACCAUUCCGCUGCCAGUGGAGAAAUGAACAAGGAGGAUCUGGGCCAGGCAGGCAUCAAAAGAAAUAGUCUUGCGCUCAACCAGAAAGUCCGUAAUCAUUUUAAGGGUA | 1.07 |
| GUAAACGGUCAUAGGCCUUGGAGACUAGGAGCACCAUUUCGCUGCCAGUGAAGAAAUGAACAAAGAAAAUCUGGGCCAGGCAGGCAUCAAAAGAAAUAGUCUUGCGCUCAACCAGAAAGUCUGUAAUCCUUUUAAGGGUA | 0.49 |
| GUUAACGGUCAUAGGCCAUGGAAACUAGGGGCACCAUUUCGCUGCCAGUGAAGAAAUGAACAAAGAAAAUCUGGGCCAGGCAGGCAUCAAAAGAAAUAGUCUUGCGCUCAACUAGAAAGUCAGUAACCAUUUUAGGGGUA | 0 |
| GUUAACGGUCAUAGGCCAUGGAAACUAGGAGCACCGUUUCGCUGCCAGUGAAGAAAUGAACAAAGAAAGUCUGGGCCAGGCAGGCAUCAAAAGAAAUAGUCUUGCGCUCAACCAGAAAGCCUGUAAUCAUUUUAAGGGUA | 0.44 |
| GUUAACGGUCAUAGGCCAAGGAAACUAGGAGCACCGUUUCGCUGCCAGUGAAGAGAUGAACAAAGAAAAUCUGGGCCAGGCAGGCAUCAAAAGAAAUAGUCUUGCGCUCAACCAGAAAGUCUGUAAUCAUUUUAAGGGUA | 1.26 |
| GUUAACGGACAUAGGCCAUGGAAACUAGGAGCACCAUUUCGCUGCCGGUGAAGAAAUGAACAAAGAAAAUCUGGGCCAGGCAGGCAUCAAAAGAAAUAGUCUUGCGCUCAACUAGAAAGUCUGUAACCAUUUUAAGGGUA | 0.01 |
| GUUAACGGUCAUAGGCCAUGGAAACUAGGAGCACCAUUUCGCUGCCAGUGAAGAAAUGAACUAAGAAAAUCUGGGCCAGGCAGGCAUCAAGAGAAAUAGUCUUGCGCUCAACCAGAAAGUCUGUAAUCAUUUUAAGGGCA | 1.37 |
| GUUAACGGUCAUAGGCCAUGGGAACUAGGAGCACCAUCUCGCUGCCAGUGAAGAAAGGAACAAGGAAAAUCUGGGCCAGGCAGGCAUCAAAAGAAAUAGUCUUGCGCUCAACCAGAAAGUCUGUAAUCAUUUUAAGGGUA | 1.78 |
| GUUAACGGUCAUAGGCCAUGGAAACUAGGAGCACCAUUCCGCUGCCAGUGAAGAAAUGAACAAAGAAAAUCUGGGCCAGGCAGGCACCAAAAGAAAUAGUCUUGCGCUCAACCAGAAGGUCUGUAAUCAUCUUAAGGGUA | 1.35 |
| GUUAACGGUCAUAGGCCAUGGAAACUAGGAGCACCUUUUCGCUGCCAGUGAAGAAAUGAACAAAGAAAAUCUGGGCCAGGCAGGCAUCAAAGGAGAUAGUCUUGUGCUCAACCAGAAAGUCUGUAAUCAUUUUAAGGGUA | 0.86 |
| GUUAGCGGUCAUAGGCCAUGGAAACUAGGAGCACCAUUUCGCUGCCAGUGAAGAAAUGAACAAAGAAAAUCUGGGCCAGGCAGGCAUCGAAAGAAAUAGUCUUGCGCUCAACCAGAAAGUCUGUAAUCAUUUCAAGGGUA | 1.11 |
| GUUAACGGUCAUAGGCCAUGGAAACUAGGAGCACCAUUUCGCUGCCAGUGAAGGAAUGAACAAAGAAAAUCUGGGCCAGGCGGGUAUCAAAAGAAAUAGUCUUGCGCUCAGCCAGAAAGUCUGUAAUCGUUUUAAGGGUA | 0 |
| GCUAUCGGACAUAGGCCAUGGAAACUAGGAGCACCAUUUCGCUGCCAGUGAAGAAAUGAACAAAGAAAAUCUGGGCCAGGCAGGCAUCAAAAGAAAUAGUCUUGCGCUCAACCAGAAAGUCUGUAAUCAUUUUAAGGGUA | 1.46 |
| GUUAACGGACAUAGGCCAUGGAAACUAGGAGCACCAUUUCGCUGCCAGUGAAGAAAUGAGCAAAGAAAAUCUGGGCCAGGCAGGCAUCAAAAGAGACAGUCUUGCGCUCAACCAGAAAGUCUGUAAUCAUUUUAAGGGUA | 0.52 |
| GUUAACGGUCAUAGGCCAUGGAAACUAGGAGCACCAUUUCGCUGCCAGUGAAGAAAUGAUCAAAGAAAAUCUGGGCCAGGCAGGCAUCAAAGGAAAUAGUCUUGCGCUCAACCAGAAAGUCUGUAACCAUUUUAAGGGUA | 1.26 |
| GUUAACGGUCAUAGGCCAUGGAAACUAGGAGCACCAUUUCGCUGCCAGUGAAGAAACGAACAAAGAAAAUCUGGGCCAGGCAGGCACCAAAAGAAACGGUCUUGCGCUCAACCAGAAAGUCUGUAAUCAUUUUAAGGGUA | 1.92 |
| GUUAACGGUCAUAGGCCAUGGAGACUAGGAGCACCAUUUCGUUGCCGGUGAAGAAAUGGACAAAGAAAAUCUGGGUCAGGCAGGCAUCAAAAGAAAUAGUCUUGCGCUCAACCAGAAAGUCUGUAAUCAUUUUAAGGGUA | 0.2 |
| GUUAACGGUCAUAGGCCAUGGAAACUAGGAGUACCGUUUCGCUGCCAGUGAAGAAAUGAACAAAGAAAAUCUGGGCCAGGCAGGCAUCAAAAGAAAUAGUCUUGCGCUCAGCCAGAAAGUCAGUAAUCAUUUUAAGGGUA | 0.02 |
| GUUAACGGUAAUAGGCCUUGGGAACUAGGAGCACCACUUCGCUGCCAGUGAAGAAAUGAACAAGGAAAAUCUGGGCCAGGGAGGCAUCAAAAGAAAUAGUCUUGCGCUCAACCAGAAAGUCUGUAAUCAUUUUAAGGGUA | 0.12 |

| Variant | self-cleavage |
| --- | --- |
| GCUAACGGUCAUAGGCCAUGAAAACUAGGAGCACCAUUUCGCUACCAGUGAAGAAAUGAGCAAAGAAAAUCUGGGCCAGGCAGGCAUCAAAAGAGAUAGUCUUGCGCUCAACCAGAAAGUCUGUAAUCAUUUUAGGGGUA | 1.39 |
| GUUAACGGUCAUAGGCCAUGGAAACUAGGAGCACCAUUUCGCUGCCAGUGAAGAAAUGAACAAAGAAAAUCUGGGCCAGGCAGGCAUCAAAAGGAAUAGUCUUGCGCUCAACCUGUAAGUCUGUAAUCAUUUUAAGGGUA | 0.01 |
| GUUAACGGUCAUAGGCCAUGGAAACUAGGAGCACCAUUUCGCUGCCAGUGAAGAAAUGAACGAAGGAAAUCUGGGCCAGGCAGGCAUCAAAAGAAAUAGUCUUGCGCUCAGCCAGAAAGUCUGUAAUCAUUUUAAGGGUA | 0.01 |
| GUUAACGGUCAUAGGCCAUGGAUACUAGGAGCACCAUUUCGCUGCCAGUGAAGAAAUGAACAAAGAAAGUCUGGGCCAGGCAGGCACCAAAAGAGAUAGUCUUGCGCACAACCAGAAAGUCUGUAAUCAUUUUAAGGGUA | 0.03 |
| GUUAGCGGUCAUAGGCCAUGGAAACUAGGAGUACCAUUUCGCUGCCAGUGAGGAAAUGAACAAAGAAAAUCUGGGCCAGGCAGGCAUCAAAAGAAAUAGUCUUGCGCUCAGCCAGGAAGUCUGUAAUCAUUUUAAGGAUA | 0.08 |
| GUUAACGGUCAUAGGCCAUGGAAACUAGGAGCACCAUUUCGCUGCCUGUGAAGAAAUGAGCGAAGAAAAUCUGGGCCAGGCAGGCAUCAAAAGAAAUAGUCUUGCGCCCAACCAGAAAGUCUGUAAUCAUUUUAAGGGUA | 0.01 |
| GUUAACGGUCGUAGGCCAUGGAAACUAGGAGCACCGUUUCGCUGCCAGUGAAGAAAUGAACAAAGAAAAUCUGGGCCAGGCAGGCAUCAAAAGAGAUAGUCUUGCGCUCAACCAGAAAGUCUGUAAUCAUUUUAAGGGUA | 1.73 |
| GUUAACGGUCAUAGGCCAUGGAAACUAGGAGCACCAUUUCGCUGCCAGUGAAGAAGUGAACAAAGAAAAUCUGGGCCAGGCAGGCAUCAAAAGAAAUAGUCUUGCGCUCAACCAGAAGGUCUGUAAUUAUUUUAAGGGUA | 0.41 |
| GUUAACGGUCAUAGGCCAUGGAAACUAGGAGCACCGUUUCGCUGCCAGUGAAGAAAUGAACAAAGAAAAUCUGGGCCAGGCAGGCAUCAAGAGAAAUAGUCUUGCGCUCAACCAGAAAGCCUGUAAUCAUUUUAAGGGUA | 0.45 |
| GUUAACGGUCAUAGGCCAUGGAAACUAGGGGCACCAUUUCGCUGCCAGUGAAGAAAUGAACAAAGAAAAUCUGGGCCAGGCAGGCACCAAAAGGAAUAGUCUUGCGCUCAACCAGAAAGUCUGUAAUCAUUUUAAGGGUA | 1.84 |
| GUUAACGGUCAUAGGCCAUGGAAACUAGGAGCACCAUUUCGCUGCCAGUGAAGAAAUGAACAAAGAAAAUCUGGGCCAAGCAGGCGUCAAAAGAAAUAGUCUUGCGCUCAACCAGAAAGUCUGUAAUCAUUCUAAGGGUA | 0.08 |
| GUUAACGGUCAUAGGCCAUGGAAACUAGGAGCGCCAUUUCGCUGCCAGCGAAGAAAUGAACAAAGAAAAUCUGGGCCAGGCAGGCAUCAAAAGAAAUAGUCUUGCGCUCAACCAGAAAGUCUGUAAUCAUUUCAAGGGUA | 1.2 |
| GUUAACGGUCAUAGGCCAUGGAAACUAGGAGCACCAUUUCGCUGCCAGUGGAGAAAUGAACAAAGAAAAUCUGGGCCAGGCAGGCACCAAAAGAAAUAGUCUUGCGCUCAACCAGAAAGUCAGUAAUCAUUUUAAGGGUA | 1.14 |
| GUCAACGGUCAUAGGCCAUGGAAACUCGGAGCACCAUUUCGCUGCCAGUGAAGAAAUGAACAAAGAAAAUCUGGGCCAGGCAGGCAUCAAAAGAGAUAGUCUUGCGCUCAACCAGAAAGUCUGUAAUCAUUUUAAGGGUA | 0.75 |
| GUUAACGGUCAUAGGCCAUGGAUACUAGGAGCACCAUUUCGCUGCCAGUGAAGAAAUGAACAAAGAAAAUCUGGGCCAGGCAGGCAUCAAAAGAAGUAGUCUUGCGCUCAACCGGAAAGUCUGUAAUCAUUUUAAGGGUA | 0.07 |
| GUUAACGGUCAUAGGCCAUGGAAACUAGGAGCACCGUCUCGCUGCCAGUGAAGGAAUGAACAAAGAAAAUCUGGGCCAGGCAGGCAUCAAAAGAAAUAGUCUUGCGCUCAACCAGAAAGUCUGUAAUCAUUUUAAGGGUA | 2.84 |
| GUUAACGGUCAUAGGCCAUGGAAACUAGGAGCACCAUCUCGCUGCCAGUGGAGAGAUGAACAAAGAAAAUCUGGGCCAGGCAGGCAUCAAAAGUAAUAGUCUUGCGCUCAACCAGAAAGUCUGUAAUCAUUUUAAGGGUA | 2.28 |
| GUUAACGGUCAUAGGCCAUGGAAACUAGGAGCACCAUUUCGCUGCCAGUGAAGAGAUGAACGAAGAAAAUCUGGGCCAGGCAGGCAUCAAAAGAAAUGGUCUUGCGCUCAACCAGAAAGUCUGUAGUCAUUUUAAGGGUA | 0.18 |
| GUUAACGGUCAUAGGCCAUGGAAACUAGGAGCACCGAUUCGCUGCCAGUGAAGAAAUGGACAAAGAAAAUCUGGGCCAGGCAGGCAUCAAAAGAAAUAGUCCUGCGCUCAACCAGAAAGUCUGUAAUCAUUUUAAGGGUA | 1.3 |
| GUUAACGGUCAUGGGCCAUGGAAACUAGGAGCACCAUUUCGCUGCCAGUGAAGAAAUGAACAAAGAAAAUCUGGGCCAGGCAGGCAUCAAAAGAAAUAGUCUUACGCUCAACCAGGAAGUCUGUAAUCAUUUUAAGGGUA | 0.13 |
